Measured values: the supplement of paper PMC4466236
The full ranking holds about 33,000 sequences; the median of “E-score (dimensionless, -0.5 to 0.5)” is about -0.058, and the highest 2% start at about 0.35. This is one part of the list.

test system: MvaT; test: PBM 8-mer E-score (mean of HK and ME arrays) (E-score (dimensionless, -0.5 to 0.5)); higher = stronger relative binding preference; most listed sequences are background and not binding sites
Method in brief: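 Reported values are rank-based E-scores, taken as the mean of two universal arrays and parsed with a custom script. Each 8-mer score falls between -0.5 and 0.5. The arrays, ME and HK, were double-stranded 60-mers with a constant 25-mer primer region and a variable 35-mer region covering all 8-mers. They were probed, by an earlier protocol, with full-length P. aeruginosa MvaT carrying an N-terminal glutathione S-transferase fusion.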

Sequence | PBM 8-mer E-score
AGTACCTC | -0.222
GTTTAACA | 0.281
GTGCCTTA | -0.086
GGGATAAC | 0.0674
AATAGGCT | 0.0938
AAGACCCG | -0.189
CAAATGCC | -0.147
CCGAGCGA | -0.245
GTCGGCAA | -0.118
CCTGTTGC | -0.185
GGGTCTCA | -0.275
CAGCGCCC | -0.28
CTAATTGC | 0.184
CGATTTGA | -0.0458
GACCCCGA | -0.159
GGGTGGAC | -0.172
AGCTGCAA | -0.0349
ACCGACTA | -0.0207
GGGCCTCA | -0.193
GGAGCTTA | -0.0736
ACTTTATC | 0.105
GAACTCCC | -0.283
AATGCTAT | 0.145
GGGCTAGA | -0.189
AAACCGTC | -0.0545

Sequence | PBM 8-mer E-score
TACTTCGA | 0.155
ACGTAAAC | -0.0262
TCGAAAAA | 0.114
AGGCATGA | -0.262
ACTCCTCC | -0.244
TCTCCTAA | 0.0217
AAGCCTCA | -0.0957
GGTTCCAA | -0.0647
ACAACTAG | 0.108
AACAGCGC | -0.0777
ACTGCACG | 0.0104
CGCTCGTC | -0.278
CGCTCCAA | -0.146
ACGTTTCC | -0.0974
CGTCCGCA | -0.142
GATGATTA | 0.0955
TCGAGGAA | -0.0588
CCCCGAGA | -0.341
AACACTTG | 0.0423
GCCTACAA | 0.049
GTTCTAAA | 0.0579
CGGAGTTA | 0.119
AGAGAGGG | -0.195
CATGCAGC | -0.269
GGAGTGCC | -0.23

Sequence | PBM 8-mer E-score
CATAAGAG | 0.0447
AGAAGCTC | -0.243
AACGGTGG | -0.0935
ACCGGGCA | -0.157
ATGCCTCG | -0.16
AAAGCTGC | -0.125
ATCTTCCC | -0.117
CCAAGATC | -0.146
GTCAATCA | -0.0887
AAATGTCT | 0.105
AATGAGCC | -0.0909
GCCCGACA | -0.188
CGCGTCCG | -0.292
ACGATGAC | -0.0476
AACCGATG | -0.172
ATACCGAC | 0.0818
CCAACTGG | -0.132
ATTAACTA | 0.339
ACTCGTAC | -0.064
GGCTAACA | 0.0276
GCTGAGTA | -0.028
ATATACCA | 0.34
ATTAATGG | 0.262
GGATCATA | 0.0137
TAGGTGGA | 0.00141

Sequence | PBM 8-mer E-score
CCATATAG | 0.084
CGACCAAA | 0.0243
CGTATGGA | 0.00978
AACTAGTT | 0.392
GTTCTCCA | -0.0822
AAATATAC | 0.333
AGTGGCTG | -0.0193
AGGCCTGA | -0.256
CACACTTA | 0.174
GAGGAGTA | -0.153
GCAACGTA | 0.119
AGCACTAT | 0.195
ATCGAATG | -0.0513
CTATGTAA | 0.17
CGATCCAA | -0.201
AATAACGC | 0.238
ACAACATC | 0.251
TATATTGA | 0.387
ATCCGATC | -0.145
GCTTATCA | 0.0172
CTAAAAGA | 0.105
CCTAAGTA | 0.0665
AACGGCCT | -0.23
AGTTAGAA | 0.168
CCGGTGTA | -0.151

Sequence | PBM 8-mer E-score
AGTCTATC | -0.107
CCCTTAAG | -0.0427
GGTGAACC | -0.0492
CTCGTGGC | -0.225
CCCCGATA | -0.142
GCGTAGAA | -0.0825
CACGACCC | -0.166
CGTCTATA | 0.162
ACAGTAGT | 0.134
AACCTAGT | 0.117
ATTTTTAC | 0.262
ACTGTGTG | 0.0336
ATGTTGTA | 0.253
AGCTGCTG | -0.146
CTTTCCCC | -0.114
ACTGAAAC | -0.034
ACACAAAA | 0.149
CCGTCAGA | -0.255
CCGCCGGC | -0.321
AGTCTGAT | 0.0745
CGAGGACA | -0.0785
GAGACACC | -0.155
GCCGATGA | -0.199
GGCTTCAC | -0.256
ATGCCCAA | 0.0106

Sequence | PBM 8-mer E-score
ACGCGATC | -0.12
CATATAGA | 0.187
ATCTGGTG | -0.0882
CTTCTCGA | -0.0897
CTAAACGA | -0.0092
AACGCCGG | -0.176
AAGTGTGT | 0.173
GGAAAGGA | -0.043
GACCTAAC | -0.022
CCACAGAC | -0.0737
GGACTCAC | -0.234
ACCGGTGG | -0.137
CGACCCCC | -0.325
GAGGTCAC | -0.295
ACCTTAAG | 0.0216
CCCCGAAA | -0.205
AATCGTCG | 0.0139
ACGAAAGC | -0.194
ATGAACCG | -0.0766
TAATCACA | 0.239
AATGCGCG | -0.0887
GTGGTAGA | 0.00466
CTCGCGCA | -0.163
ACACGCCT | -0.0821
ATCTGCTA | 0.109

Sequence | PBM 8-mer E-score
ATACCCAA | 0.145
AATGGCAC | 0.0315
GTCCCCAA | -0.101
GCAGGTAA | 0.00718
ACGTTGAC | -0.137
CAAGGCGG | -0.246
AGAAGCTA | -0.112
GCTGATAC | -0.0304
CCCCAGGA | -0.228
CCGTCGAC | -0.199
AATGACCG | -0.00123
ATGTACGC | 0.0162
GCCCGCAC | -0.192
ACGATATG | 0.0174
ACATTTAA | 0.388
CTCTTAAC | 0.159
ACGAGAAC | -0.0886
GCACGGTA | 0.156
CTGACTCC | -0.172
TGTATAAA | 0.258
AAACCCTC | -0.195
ACAGAACC | -0.182
